# According to the supplement of paper PMC3334620:
# In all, about 33,000 sequences were measured (“E-score (-0.5 to 0.5)”: median about -0.041, highest 2% from about 0.37 on). The list shows a part of the results.
# Molecular target: T1, Ecm22 (UniProt Q05958)
# T1 sequence: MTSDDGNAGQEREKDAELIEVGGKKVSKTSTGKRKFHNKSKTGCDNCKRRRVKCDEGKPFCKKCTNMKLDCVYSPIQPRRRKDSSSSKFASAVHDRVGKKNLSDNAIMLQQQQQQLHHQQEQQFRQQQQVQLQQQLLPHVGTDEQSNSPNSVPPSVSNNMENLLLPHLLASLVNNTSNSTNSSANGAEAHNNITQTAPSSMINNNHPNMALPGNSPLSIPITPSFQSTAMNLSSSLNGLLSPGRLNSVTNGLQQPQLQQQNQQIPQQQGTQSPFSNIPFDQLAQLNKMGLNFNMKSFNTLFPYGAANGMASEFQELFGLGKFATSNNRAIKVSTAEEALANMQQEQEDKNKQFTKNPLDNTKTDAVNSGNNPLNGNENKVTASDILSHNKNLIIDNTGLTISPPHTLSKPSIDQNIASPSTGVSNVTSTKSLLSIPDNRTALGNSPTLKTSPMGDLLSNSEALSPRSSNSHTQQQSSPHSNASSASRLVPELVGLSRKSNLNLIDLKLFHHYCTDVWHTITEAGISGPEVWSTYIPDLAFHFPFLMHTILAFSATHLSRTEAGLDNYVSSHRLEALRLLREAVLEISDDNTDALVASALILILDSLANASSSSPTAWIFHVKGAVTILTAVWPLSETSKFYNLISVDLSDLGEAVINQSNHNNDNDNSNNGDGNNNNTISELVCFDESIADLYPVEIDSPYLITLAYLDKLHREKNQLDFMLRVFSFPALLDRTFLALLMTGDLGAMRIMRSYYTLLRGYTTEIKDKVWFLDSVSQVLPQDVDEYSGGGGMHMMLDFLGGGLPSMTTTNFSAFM
# Test: PBM E-score (8-mer binding enrichment) (E-score (-0.5 to 0.5)); higher = stronger / more preferred TF binding; most listed sequences are background and not binding sites
# Details: protein concentration: 200 nM; construct: GST-full length
# Summary of the method: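 Universal all-10-mer Agilent arrays, double-stranded by primer extension on fresh or once-stripped slides, were probed with about 100-200 nM GST-tagged yeast transcription factors made by PURExpress. Fluorescent anti-GST detected bound protein, and masliner normalised the scans. E-scores from the Universal PBM Analysis Suite were given to each ungapped eight-base word pooled with its reverse complement.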
row,Sequence,PBM E-score
1,CCGTCCAA,-0.192
2,ACCCTTAA,-0.0578
3,ACTACCCT,-0.262
4,GACTCCAC,-0.35
5,AGCTGCAC,-0.162
6,CTAAGAAA,0.128
7,AACTCACA,-0.104
8,CCAACCAC,-0.0514
9,TCGGGCCA,-0.0681
10,ACTCTTTG,-0.116
11,ACTTACAT,0.00759
12,CCCGCTAC,0.214
13,AGAAACAC,0.0005
14,ACCATAAC,0.0883
15,GACGTCAC,-0.163
16,AAAAGGAT,-0.0106
17,CACGTAAA,0.106
18,CCTCTGTC,0.0319
19,CTCAGTAC,0.00028
20,ACTGGCTA,-0.332
21,AGCGTGCC,-0.145
22,GAGTTCCA,0.00497
23,CGCCCCAA,-0.0098
24,GCTGTCCC,0.14
25,CGTTTCTC,0.295

row,Sequence,PBM E-score
1,AGGAGTAG,-0.181
2,AGATAGGA,-0.244
3,ACATCGAA,0.0967
4,CAACAAGA,-0.0196
5,CCACCTAC,-0.381
6,CATAAAAG,-0.0794
7,AACTCCAA,-0.166
8,AGGACCAA,-0.168
9,GCTTAGAA,0.00571
10,AATCCATC,-0.0103
11,CTGTAGCA,-0.156
12,CAAAGTTA,-0.0884
13,GGCTCGGA,0.0976
14,CAAGCGAA,0.257
15,ATTTGGGG,-0.042
16,TCGGCCCA,-0.0933
17,ATCTTAAT,-0.0808
18,CTGGTTAC,-0.145
19,AGCAACTA,0.0519
20,GAGGCGAC,0.00633
21,CCTTAGTC,-0.193
22,TCGTTACA,0.293
23,AAGGCCGG,-0.156
24,GGTAGGGA,-0.154
25,CCCTTAAA,-0.125

row,Sequence,PBM E-score
1,ATTTCCAG,-0.151
2,CCCATATC,0.00408
3,GCTTCTAA,-0.183
4,CGCAACAA,0.0504
5,AAAACAAC,-0.286
6,CACATAGG,-0.283
7,CCTCCATC,0.00271
8,CAGGTTGA,-0.111
9,ATTGCTTC,0.0317
10,AAAATAAG,-0.0771
11,CGAACGCA,0.242
12,GCGCCTCA,-0.235
13,CACTCAAG,-0.14
14,ACATTTCT,0.0423
15,AGGGCAAC,-0.236
16,CCATGCAG,-0.246
17,ATCGCGGC,0.107
18,AACCGGCA,-0.114
19,AAGACCGC,-0.156
20,TCCGGAGA,-0.168
21,ACCAACTA,0.0214
22,CCACCTAG,-0.204
23,CATCATCG,0.032
24,GCTGGGCA,-0.155
25,TAGGCAGA,-0.0781

row,Sequence,PBM E-score
1,AGGTCCTC,0.0692
2,AGCGTGAA,0.0147
3,ATCTGACC,0.0893
4,ATTTACGA,0.453
5,GAGTGATC,0.0822
6,CACGGAAG,-0.202
7,GAGCGCGA,0.214
8,GCTGCTCC,-0.176
9,AACGTAGC,0.18
10,ATGACTTA,0.0397
11,CGCCGTCA,-0.184
12,ACCCTTCT,-0.107
13,TCCGCTAA,0.00479
14,CGCTGTAC,0.155
15,ACATGGGC,-0.263
16,TCGCTGCA,0.0954
17,CTGGATTA,-0.0757
18,TTACACAA,-0.0124
19,CTGTAGAC,-0.238
20,ATACTCGA,0.0999
21,CGCGCGCG,0.181
22,CGGTGTAG,0.0391
23,ATAGTACA,0.151
24,CCATTCTC,-0.163
25,AGCTGCGC,-0.0377

row,Sequence,PBM E-score
1,TAAATCTA,-0.115
2,AGGGAAGG,-0.354
3,ACTTGCGC,0.098
4,ACCACTTC,-0.0644
5,AAGCATCA,-0.234
6,AACGCAAT,0.0229
7,TCTCAAGA,-0.347
8,GTCTTGGA,-0.291
9,CGTATGGC,0.4
10,AATAGAGC,0.124
11,GGCCCGGA,-0.142
12,AAGAGTAC,0.0468
13,CCGCGCCC,-0.233
14,GCTCCCGA,-0.0232
15,CGAGGTCA,0.267
16,CAAAATCA,-0.0208
17,ACGCAAAC,0.21
18,ACCCCAGC,-0.0441
19,ATTACGAA,0.349
20,CCCGACAG,-0.221
21,CGGCATAG,0.0278
22,CCCATCAG,-0.211
23,TATTTTAA,0.0538
24,AGGCCGGC,-0.232
25,CCCGTTAG,-0.235

row,Sequence,PBM E-score
1,ATATGAAT,-0.0784
2,ATGAACTA,0.0245
3,AGGTGCTA,-0.0525
4,GATGGTGC,0.0158
5,ATACGTGA,0.171
6,ATGTCTAG,-0.0927
7,CCTCGGTA,0.152
8,CCCAGCCA,0.0727
9,ACGTCTTC,-0.126
10,CGCGTTAG,-0.0122
11,ACCTATGC,-0.0281
12,CAGAAGGG,-0.119
13,CCGCCAGA,-0.0907
14,ACGCCACG,-0.0847
15,GACACACA,0.0148
16,ATCCGCCC,-0.0715
17,CCCATGCC,-0.293
18,CACGCAAC,0.122
19,AACACCTA,-0.128
20,ACGGTCAC,0.0169
21,CAGCAGCC,-0.0927
22,CGTACCAC,0.446
23,GCTACCCC,-0.29
24,AGTGACCA,-0.0296
25,ATATATTA,0.182

row,Sequence,PBM E-score
1,GTGAACAC,-0.176
2,GGCGCGAA,-0.135
3,AGTAAGTG,-0.0907
4,TCTTAGCA,-0.0542
5,CGCGCGAC,0.213
6,ACACGCAC,-0.0814
7,ACACTGTG,-0.1
8,TCCGAACA,0.0654
9,AAAGGGGA,-0.26
10,ACACCTAT,0.00662
11,TGTTAGAA,-0.191
12,GGTTTCAC,-0.118
13,GTAACTTA,0.219
14,GTATAAAA,0.335
15,GCCTCTCA,-0.121
16,CATCCCGA,-0.0338
17,GGCTGGGA,-0.0886
18,TCGTTAGA,0.314
19,CTGTTGGC,-0.208
20,ACGAGTGA,0.34
21,ACAACATG,0.16
22,AGTTCTAT,0.0858
23,ATGCGGAG,-0.132
24,CGATACTC,0.183
25,CCGTGAGG,-0.373

row,Sequence,PBM E-score
1,CCCAGGCA,-0.356
2,AACCTCTC,-0.26
3,AGACGTAC,0.177
4,AACGGCCG,0.23
5,TCGATCGA,-0.00294
6,ACATTTAG,-0.231
7,AATCCTGG,-0.243
8,GATAGGTA,-0.00683
9,GCTCGCGA,0.283
10,CGCCGTGC,-0.239
11,CATGCCAG,-0.154
12,CGCTTAGA,0.231
13,GTTCTCTA,0.127
14,GAAGGTGC,-0.0545
15,AAACCCTT,-0.119
16,CATCGCCA,-0.11
17,GATATCTA,0.032
18,AGCGTTAT,-0.0408
19,ACGATGTC,0.237
20,AACTGGCC,-0.0821
21,CCAAGATA,-0.0891
22,AGCTACAC,-0.0236
23,CTTCTCGC,0.225
24,CGGCTGAC,0.0527
25,GATACAGA,0.00964

row,Sequence,PBM E-score
1,ACGAATCG,0.354
2,CGGTTGCA,-0.06
3,CGGAGCCG,0.156
4,AGCGAACG,0.296
5,CGTTTCTA,0.253
6,ATTTCGCC,0.131
7,GATACCTA,0.119
8,ATCATGAG,0.0728
9,CCCACGAA,0.0243
10,CTTAGGAC,-0.131
11,TACTAGCA,0.0755
12,AGTGTTTG,0.0855
13,TCCAGTAA,-0.171
14,CCTCAAGG,-0.249
15,TGGCGTAA,0.0429
16,AGGCGTGA,-0.0388
17,CAAGGCAG,-0.298
18,AAAGAGGC,0.0837
19,CGATCCAC,0.201
